Among all 150,000 compounds or so, about 540 (0.36%) showed an effect of 50% or more. This is one part of the list.

For this assay, the system named is Plasmodium falciparum. The assay is described as follows: Primary screen in NF54 nanoGlo assay, in single point, at 2uM, 72h; a lower Z score goes with more inhibition. In kind it is functional, Erythrocyte. Particulars: timepoint 72 hour.
Turning to `O=C(CCCC1CC1)NC[C@H]1CCN(CC(F)F)C1`, the % Inhibition (usually the change of the read-out against control, counted positive when it falls) is given as -3% and the Z score was 0.65.
On the same counts, the results for `O=C(NC[C@H]1CCCN1c1ccccn1)c1ccncc1` are -8% and 1.58.
On the same counts, the results for `CCOc1ccc(S(=O)(=O)N2CCCN(C)c3nc4ccccc4nc32)cc1` are -8% and 1.14.
On the same counts, the results for `C[C@H](NCC1(CO)CC1)c1ccccc1N(C)C` are -3% and 0.33.
Consider `COC[C@H](C)NCC(=O)NCc1ccc(OC)c(OC)c1`, for which the “% Inhibition” value is reported as -3% and the Z score amounted to 0.35.
As for `COc1cccc(NC(=O)Nc2ccc(N3CC(OC)C3)cc2)c1`, the “% Inhibition” value was -7% and the Z score was 1.09.
Regarding `O=C(O)C1CCN(C2CCN(Cc3cnc(NCc4ccccc4)nc3)CC2)CC1`, the “% Inhibition” value is -7% and the Z score is recorded as 0.93.
For `O=C1c2ccccc2C(=O)N1CCn1nc2ccccn2c1=O`, the “% Inhibition” value is reported as -4% and the Z score came out at 0.36.
Take `O=C(NCCc1ccco1)[C@H]1CCCN(C2CCN(Cc3ccccc3)CC2)C1`: the “% Inhibition” value came out at 0% and the Z score is -0.02.
For `COc1ccc2c(c1)N1CCN(c3ccc(F)cc3)CC1C(C(=O)NC1CCCCC1)C2` (stereo unspecified), the “% Inhibition” value is reported as -1% and the Z score is listed as 0.15.
As for `CC(C)(C)N(Cc1ccccn1)C(=O)c1nc2c(s1)CCC2`, the “% Inhibition” value is on record as 6% and the Z score was -0.72.
On the same counts, the results for `CN(CCCN1CCc2[nH]ncc2C1)c1ccccc1` are 0% and 0.05.
For `OCCCN(Cc1ccncc1)Cc1cnc(-c2ccc(Cl)cc2)nc1`, the “% Inhibition” value is recorded as -1% and the Z score was found to be 0.23.
As for `C[C@H](NC(=O)c1ccc(S(=O)(=O)N2CCCC2)cc1)c1ccccn1`, the “% Inhibition” value is given as -24% and the Z score is on record as 2.38.
For `CC[C@@H](C(=O)N(CC)Cc1ccccc1)n1cnc2onc(C)c2c1=O`, the “% Inhibition” value is on record as -4% and the Z score amounted to 0.5.
Consider `N#Cc1cccnc1N(CCc1ccc(Cl)cc1)CC1CC1`, for which the “% Inhibition” value amounted to 1% and the Z score was -0.15.
On to `CN(C)c1nccc(CNS(=O)(=O)c2ccccc2)n1`, for which the “% Inhibition” value is reported as -12% and the Z score is reported as 2.18.
For `Cn1c(CN2CCOCC2)nnc1[C@H]1CCCN(c2nc3ccccc3o2)C1`, the “% Inhibition” value was determined as 10% and the Z score is -1.7.
On to `O=C(c1ccc2cccc(Cl)c2n1)N1CCN(c2ncc[nH]c2=O)CC1`, for which the “% Inhibition” value is -1% and the Z score was 0.09.
As to `CC(C)n1nnnc1-c1ccc(NC(=O)N2CCCOCC2)cc1F`, the “% Inhibition” value is recorded as -8% and the Z score was 1.13.
Take `O=C([C@@H]1CCC[C@H](O)C1)N1CCC(n2cnnc2)CC1`: the “% Inhibition” value was -10% and the Z score is listed as 1.31.
Take `O=C(O)CC[C@H]1CCCCN1Cc1c(Cl)cncc1Cl`: the “% Inhibition” value was -2% and the Z score is 0.47.
On the same counts, the results for `CCOC(=O)CN(C)C(=O)CN(C)[C@@H](C)C1CC1` are -1% and 0.07.
Consider `CCOc1cccc(CC(=O)N2CCCN(c3cc(=O)n(C)c(=O)n3C)CC2)c1OCC`, for which the “% Inhibition” value is on record as -3% and the Z score was 0.45.
As to `CCCCc1nc(CN2CCC(C(=O)O)(n3ccnc3C)CC2)c[nH]1`, the “% Inhibition” value is given as -10% and the Z score is 1.02.
On the same counts, the results for `C[C@@H](Cc1ccco1)NC(=O)c1ccncc1` are 1% and -0.17.
As to `Clc1ccc(OCCCn2ccnc2)c(CN2CC(c3ccccn3)C2)c1`, the “% Inhibition” value was 0% and the Z score is given as -0.01.
With `O=S(=O)(Nc1cccc2c1CCCC2)c1ccc2c(c1)OCCCO2`, the “% Inhibition” value is recorded as -7% and the Z score is given as 1.43.
For the compound `C#CCN(CC)[C@@H](C)c1cccc(O)c1`, the “% Inhibition” value is listed as -10% and the Z score was determined as 1.48.
Take `Cc1c(NC(=O)[C@H]2CCOC2)cccc1N(C)C`: the “% Inhibition” value was 2% and the Z score is on record as -0.2.
On the same counts, the results for `Cn1c(C2CCN(C(=O)c3cnco3)CC2)nc2ccccc21` are -8% and 0.91.
As to `CCCn1nc(C(=O)O)c2c1CC[C@H](N(C)CC1(C)COC1)C2`, the “% Inhibition” value was 6% and the Z score is -0.72.
The corresponding values for `O=C(CC(F)(F)F)Nc1ccc(Br)cc1` are -6% and 1.22.
On the same counts, the results for `CCc1nnc2ccc(S(=O)(=O)N(CC#N)c3ccccc3)cn12` are 43% and -6.17.
Turning to `Cc1cnc(C)c(NCCCC[C@H]2CCCO2)n1`, the “% Inhibition” value is reported as -4% and the Z score is given as 0.56.
With `CC1(C)CCc2ccccc2C1NCC(O)COC1CCOCC1` (stereo unspecified), the “% Inhibition” value was -8% and the Z score is recorded as 1.4.
Take `Cc1ccc(C(=O)Nc2ccc(N3CCCN(C(=O)Nc4cccc(C)c4)CC3)c(C(=O)NCc3ccc(F)cc3)c2)cc1`: the “% Inhibition” value was 18% and the Z score is listed as -3.32.
Turning to `CCOc1ccc(NC(=O)N2CCC(N3CCN(Cc4ccc(C)cc4)C(=O)C3=O)CC2)cc1`, the “% Inhibition” value is recorded as -12% and the Z score is on record as 1.1.
Regarding `COCCN(Cc1ccc(C)o1)C(=O)c1ccc2[nH]c(=O)[nH]c2c1`, the “% Inhibition” value is on record as 1% and the Z score is -0.23.
`CNC(=NCCOc1ccc(F)c(F)c1)NC`: the “% Inhibition” value is listed as -3% and the Z score was found to be 0.57.
For `CCOCC(=O)N(Cc1cccs1)Cc1cccn1C`, the “% Inhibition” value was 18% and the Z score was -2.02.
On the same counts, the results for `CC(C)OC1CC(NC(=O)CCn2ccnc2)C1(C)C` (stereo unspecified) are -4% and 0.47.
Consider `COCc1cccc(OCC2(CN3CCN(CC(F)F)CC3)CC2)c1`, for which the “% Inhibition” value is reported as -15% and the Z score was found to be 2.13.
